Some of the results follow. Each Rep nickase domain was tested in vitro on the same pool of single strands (3 µM enzyme, 1 h, 37 °C); shown is the middle of each 90-letter strand. Values are log2 of uncut reads against the no-enzyme pool; more negative means more cut, near 0 not cut, and no call is made. Because reads are shares of a total, they shift together; where an enzyme cuts many sequences, the uncut ones exceed 0.
How the values were obtained:
Test in all cases: uncleaved DNA left, log2 of reads against the no-enzyme library (log2 ratio); higher = less cleavage (more negative = more Rep cleavage of the k-mer); sequences stand for … in CTCGTCCG…ACCGGAGA
[1] = tested on: T1, Rep nickase domain of Muscovy duck circovirus
T1 sequence (protein, residues 1-111, tag omitted): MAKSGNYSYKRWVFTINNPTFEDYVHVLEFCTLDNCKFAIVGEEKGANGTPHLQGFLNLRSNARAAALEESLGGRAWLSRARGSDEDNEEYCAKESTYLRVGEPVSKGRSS
Method: (§1)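 A pool of 90-nt single-stranded DNAs with seven random bases just before the constant AC of the nick site (name = the seven bases) was cut by 3 µM recombinant His6-SUMO-tagged Rep nickase domain (300 nM DNA, 50 mM HEPES pH 8.0, 50 mM NaCl, 1 mM MnCl2, 1 h, 37 °C, three replicates). Uncut DNA was amplified and sequenced.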

[2] = tested on: T2, Rep nickase domain of banana bunchy top virus
T2 sequence (protein, residues 1-94, tag omitted): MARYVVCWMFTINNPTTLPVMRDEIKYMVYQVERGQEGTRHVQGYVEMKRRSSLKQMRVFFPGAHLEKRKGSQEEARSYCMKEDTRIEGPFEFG
Method: as §1

[3] = tested on: T3, Rep nickase domain of cabbage leaf curl virus
T3 sequence (protein, residues 1-116, tag omitted): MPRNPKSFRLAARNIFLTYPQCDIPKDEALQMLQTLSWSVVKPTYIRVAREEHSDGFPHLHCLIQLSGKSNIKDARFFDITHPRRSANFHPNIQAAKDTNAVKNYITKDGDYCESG
Method: as §1

[4] = tested on: T4, Rep nickase domain of chickpea chlorotic dwarf virus
T4 sequence (protein, residues 1-124, tag omitted): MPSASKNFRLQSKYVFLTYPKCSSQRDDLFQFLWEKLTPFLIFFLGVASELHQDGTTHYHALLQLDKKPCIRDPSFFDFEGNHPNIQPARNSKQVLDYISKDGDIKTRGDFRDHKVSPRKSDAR
Method: as §1

[5] = tested on: T5, Rep nickase domain of faba bean necrotic yellows virus
T5 sequence (protein, residues 1-98, tag omitted): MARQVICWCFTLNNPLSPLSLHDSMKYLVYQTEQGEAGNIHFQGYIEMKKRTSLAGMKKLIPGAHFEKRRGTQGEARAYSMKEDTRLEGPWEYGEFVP
Method: as §1

[6] = tested on: T6, Rep nickase domain of maize striate mosaic virus
T6 sequence (protein, residues 1-117, tag omitted): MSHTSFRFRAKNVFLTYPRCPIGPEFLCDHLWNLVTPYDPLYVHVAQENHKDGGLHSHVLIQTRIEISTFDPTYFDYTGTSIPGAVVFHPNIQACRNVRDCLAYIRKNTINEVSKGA
Method: as §1

[7] = tested on: T7, Rep nickase domain of porcine circovirus 2
T7 sequence (protein, residues 2-116, tag omitted): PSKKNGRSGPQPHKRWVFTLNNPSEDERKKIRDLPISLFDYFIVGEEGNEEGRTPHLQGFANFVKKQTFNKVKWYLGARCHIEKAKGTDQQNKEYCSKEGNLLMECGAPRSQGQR
Method: as §1

[8] = tested on: T8, Rep nickase domain of tomato golden mosaic virus
T8 sequence (protein, residues 1-124, tag omitted): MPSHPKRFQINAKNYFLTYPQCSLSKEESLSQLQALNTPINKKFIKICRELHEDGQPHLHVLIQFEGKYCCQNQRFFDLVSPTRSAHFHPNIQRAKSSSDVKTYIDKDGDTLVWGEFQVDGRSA
Method: as §1

[9] = tested on: T9, Rep nickase domain of tomato yellow leaf curl virus
T9 sequence (protein, residues 1-136, tag omitted): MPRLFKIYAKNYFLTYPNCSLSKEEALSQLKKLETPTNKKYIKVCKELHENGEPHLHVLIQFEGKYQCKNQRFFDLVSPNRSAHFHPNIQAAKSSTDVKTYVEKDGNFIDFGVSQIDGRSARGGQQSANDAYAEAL
Method: as §1

[10] = tested on: T10, Rep nickase domain of wheat dwarf virus
T10 sequence (protein, residues 1-137, tag omitted): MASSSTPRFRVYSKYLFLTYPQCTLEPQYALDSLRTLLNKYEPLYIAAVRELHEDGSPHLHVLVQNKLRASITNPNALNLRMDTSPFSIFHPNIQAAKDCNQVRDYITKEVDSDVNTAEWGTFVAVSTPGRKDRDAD
Method: as §1

| Sequence | uncleaved DNA left (log2) [1] | uncleaved DNA left (log2) [2] | uncleaved DNA left (log2) [3] | uncleaved DNA left (log2) [4] | uncleaved DNA left (log2) [5] | uncleaved DNA left (log2) [6] | uncleaved DNA left (log2) [7] | uncleaved DNA left (log2) [8] | uncleaved DNA left (log2) [9] | uncleaved DNA left (log2) [10] |
| --- | --- | --- | --- | --- | --- | --- | --- | --- | --- | --- |
| AGTCGTC | 0.151 | 0.0298 | 0.00853 | 0.000203 | -0.00447 | -0.472 | -0.0372 | 0.00978 | -0.0173 | 0.0772 |
| CCCGCGC | 0.128 | -0.0402 | -0.652 | -0.451 | -0.0456 | -0.551 | 0.0857 | -0.0521 | -0.155 | -0.034 |
| AGGCGGT | -0.0481 | -0.0153 | 0.0574 | 0.935 | 0.0159 | 1.13 | 0.137 | 0.185 | -0.0999 | -0.117 |
| CTTAATC | 0.183 | 0.212 | 0.126 | 0.11 | 0.137 | -0.72 | 0.0737 | 0.101 | 0.163 | 0.267 |
| CCATAGC | 0.179 | 0.0684 | -0.641 | -0.396 | 0.166 | -1.05 | 0.186 | 0.108 | 0.178 | -0.0785 |
| GACCTAG | 0.0782 | 0.149 | -0.517 | -0.447 | 0.179 | -0.944 | 0.109 | 0.164 | 0.211 | 0.14 |
| GAGAGGG | 0.137 | 0.169 | 0.131 | 0.507 | 0.232 | 0.195 | 0.235 | 0.216 | 0.0647 | 0.124 |
| ACCATCC | -0.0164 | 0.0206 | -0.266 | -0.393 | 0.171 | -0.9 | 0.136 | 0.0333 | -0.0169 | -0.0446 |
| CCTATCG | 0.00883 | 0.127 | -0.641 | 0.172 | 0.0112 | -1.05 | 0.0802 | -0.0388 | -0.0995 | -0.0982 |
| CCTATGA | 0.00306 | -0.096 | -0.0885 | 0.0658 | -0.00469 | -0.895 | 0.0145 | -0.063 | -0.097 | -0.117 |
| GTCGCAC | -0.0722 | 0.00765 | 0.275 | 0.718 | -0.00726 | 1.28 | 0.0229 | 0.101 | 0.00777 | 0.0323 |
| CCGTCCT | -0.543 | -0.155 | -0.131 | -1.62 | -0.328 | -0.234 | -2.31 | 0.0173 | -0.138 | -0.323 |
| ATTGAAG | 0.0205 | -0.0408 | -0.886 | -0.143 | 0.0304 | -0.996 | 0.095 | -0.0126 | -0.00206 | -0.173 |
| TCGATAA | -0.00606 | 0.0147 | -0.0797 | -0.168 | -0.00831 | -0.435 | 0.0219 | -0.0416 | -0.0269 | 0.135 |
| TACCGTC | -0.0857 | -0.0301 | -0.18 | -1.07 | -0.0356 | -0.881 | -0.356 | -0.088 | -0.106 | -0.0431 |
| TTCTAGT | -2.61 | -0.103 | -0.271 | -0.966 | -0.0418 | -0.841 | -3.24 | -0.128 | -0.0324 | -0.000855 |
| CTTCGTT | -0.173 | -0.284 | -0.373 | -2.3 | -0.0709 | -1.01 | -0.727 | -0.163 | -0.156 | -0.19 |
| CCAGTCC | -0.172 | -0.211 | 0.203 | -0.196 | 0.00897 | -0.333 | -0.0116 | -0.0472 | -0.141 | -0.0716 |
| TACATAA | -0.0639 | -0.0789 | -0.319 | -1.22 | -0.139 | -0.796 | -0.174 | -0.0645 | -0.041 | -0.0124 |
| ATAATTT | -0.00609 | -0.0644 | 0.325 | -2.64 | 0.0824 | -0.772 | -0.337 | 0.0796 | 0.0118 | -0.0284 |
| ACAGCAG | -0.026 | 0.00253 | -0.685 | 0.0786 | 0.0145 | -0.587 | 0.237 | 0.0251 | 0.00547 | -0.0215 |
| TGTTGTT | -2.89 | -0.932 | -0.397 | -1.92 | -0.132 | -0.42 | -3.22 | -0.173 | 0.0275 | -0.704 |
| CACCACG | 0.0916 | 0.179 | -0.789 | 0.000175 | 0.19 | -0.736 | 0.0498 | 0.0892 | 0.0863 | 0.173 |
| GCTGCAG | -0.0273 | -0.227 | -0.752 | -0.634 | -0.099 | -1.02 | 0.00385 | -0.15 | -0.138 | -0.131 |
| CCTACTT | -0.0728 | -0.0983 | -0.258 | -2.68 | -0.0304 | -0.498 | -0.685 | -0.104 | -0.083 | -0.175 |
| GGCTGGA | 0.0146 | -0.0668 | 0.356 | 1 | -0.0312 | 1.47 | 0.0467 | -0.0437 | -0.0958 | -0.0355 |
| GAACACA | -0.0242 | 0.0661 | 0.298 | -1.18 | 0.0302 | 0.959 | 0.145 | 0.0924 | 0.0846 | 0.215 |
| CCTGCCC | -0.0101 | -0.0847 | -0.0733 | -0.286 | -0.0558 | -0.399 | -0.0763 | -0.283 | -0.0931 | -0.182 |
| GGTGTAG | 0.12 | 0.0872 | 0.0247 | 0.264 | 0.118 | -0.199 | 0.164 | 0.152 | 0.0795 | -0.0204 |

— the supplement of paper PMC7826260
